Laboratory results published in article PMC4336329 (PLoS ONE, 2015).
Out of some 310,000 compounds screened, about 14,000 (4.5%) showed an effect of 50% or more. The effect is printed as a negative number. Some of the results follow.

What follows are molecules tested against human ether-à-go-go-related gene (hERG) potassium channel (human, UniProt Q12809) (assay: primary screen, population patch clamp on CHO cells stably expressing hERG).
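Further: peak tail current of the secondary pulse compared with the same well before compound.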

Chain of human ether-à-go-go-related gene (hERG) potassium channel (Q12809 whole entry, looked up): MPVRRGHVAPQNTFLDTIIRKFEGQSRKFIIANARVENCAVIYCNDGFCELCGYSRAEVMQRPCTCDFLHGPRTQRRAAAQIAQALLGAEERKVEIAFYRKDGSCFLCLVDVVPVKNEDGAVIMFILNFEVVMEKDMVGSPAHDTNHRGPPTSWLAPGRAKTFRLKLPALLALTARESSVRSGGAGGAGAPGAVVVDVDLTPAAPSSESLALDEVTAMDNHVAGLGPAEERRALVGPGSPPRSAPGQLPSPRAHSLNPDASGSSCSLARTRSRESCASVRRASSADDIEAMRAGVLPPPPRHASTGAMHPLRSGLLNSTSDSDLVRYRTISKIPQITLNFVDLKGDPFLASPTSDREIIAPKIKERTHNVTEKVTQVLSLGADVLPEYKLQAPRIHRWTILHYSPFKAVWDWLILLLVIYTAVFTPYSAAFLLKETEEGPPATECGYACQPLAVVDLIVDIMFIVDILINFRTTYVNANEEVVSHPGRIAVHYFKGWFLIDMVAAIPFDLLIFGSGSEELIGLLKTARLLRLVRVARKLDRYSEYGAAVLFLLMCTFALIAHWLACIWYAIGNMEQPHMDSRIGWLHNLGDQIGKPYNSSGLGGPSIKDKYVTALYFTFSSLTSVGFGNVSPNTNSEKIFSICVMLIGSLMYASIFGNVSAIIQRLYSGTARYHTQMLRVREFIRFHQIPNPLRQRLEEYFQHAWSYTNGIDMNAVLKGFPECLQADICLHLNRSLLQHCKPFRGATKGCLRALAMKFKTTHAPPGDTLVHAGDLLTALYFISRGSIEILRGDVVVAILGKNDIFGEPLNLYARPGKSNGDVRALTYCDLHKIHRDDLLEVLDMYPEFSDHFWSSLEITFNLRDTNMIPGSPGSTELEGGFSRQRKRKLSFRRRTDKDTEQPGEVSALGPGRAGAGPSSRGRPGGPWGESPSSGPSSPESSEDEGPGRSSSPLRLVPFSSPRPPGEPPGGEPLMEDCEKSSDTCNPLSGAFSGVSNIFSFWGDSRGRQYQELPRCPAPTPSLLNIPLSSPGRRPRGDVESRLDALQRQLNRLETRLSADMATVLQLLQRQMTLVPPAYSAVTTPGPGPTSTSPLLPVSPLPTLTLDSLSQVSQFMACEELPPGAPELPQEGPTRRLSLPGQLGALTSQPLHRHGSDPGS

| SMILES | hERG current change (%, negative = inhibition) at 10uM |
| --- | --- |
| COc1ccccc1C(C[N+](=O)[O-])c1c(N)n(C)c(=O)n(C)c1=O (centres unmarked) | -3.21% |
| COc1ccc(OC)c(NC(=O)Nc2cc(NC(=O)Nc3cc(OC)ccc3OC)c(C)nc2C)c1 | 11.8% |
| Cn1c(CC(=O)Nc2ccccc2C(F)(F)F)c(Sc2ccccc2)c2ccccc21 | 15.9% |
| O=C(CNC(=O)c1ccccc1O)N/N=C/c1ccccn1 | 2.92% |
| CCCCn1c(N)c(N(CCC)C(=O)C2CCCC2)c(=O)[nH]c1=O | -20.8% |
| CN(CCc1ccccn1)C(=O)c1cccnc1Oc1ccc(Cl)cc1 | -19.5% |
| COc1ccc2c(CCN)c[nH]c2c1.Cl | 11.2% |
| Cc1ccc(SCc2ccc(C(=O)Nc3ccccc3Br)cc2)cc1 | -19% |
| CCOC(=O)C(NS(=O)(=O)c1ccc(Br)cc1)C(C)C (centres unmarked) | -20.8% |
| c1ccc(Cc2noc(CN3CCN(Cc4ccc5c(c4)OCO5)CC3)n2)cc1 | -28.1% |
| CCN1CCN(S(=O)(=O)c2ccc(Cl)c(C(=O)Nc3cc(Cl)ccc3N3CCOCC3)c2)CC1 | 1.7% |
| Cc1ccccc1OCC(O)CN1CCN(CCN2C(=O)c3cccc4cccc(c34)C2=O)CC1 (centres unmarked) | -74.2% |
| O=C(NCCCN1CCOCC1)C(C(=O)NCCCN1CCOCC1)c1ncc(C(F)(F)F)cc1Cl | 29.2% |
| C#CCOC(=O)CCC(=O)NCCc1ccccc1 | 8.88% |
| Cc1ccc(N2CCN(S(=O)(=O)c3ccc4oc(=O)ccc4c3)CC2)c(C)c1 | 24.2% |
| Cc1ccccc1OCC(=O)NNC(=O)CCc1ccccc1 | 7.35% |
| CC1CCCCN1S(=O)(=O)c1ccc(C(=O)N(CCCN(C)C)c2nc3cc4c(cc3s2)OCO4)cc1.Cl (centres unmarked) | -81.1% |
| COc1ccc(-c2cc(-c3ccccc3)nc(SC(C)C(=O)O)c2C#N)cc1 (centres unmarked) | 12.5% |
| CCN(CC(=O)Nc1c(F)cccc1F)C(=O)CNC(=O)c1ccc(Br)o1 | 2.75% |
| CC(C)Cc1nnc(NC(=O)Cc2ccccc2[N+](=O)[O-])s1 | -12% |
| O=C(Nc1ccc(OC(F)F)c(Cl)c1)c1ccccn1 | 26.1% |
| Cc1cc(C)cc(NC(=O)Cn2c(=O)oc3cc(S(=O)(=O)N4CC(C)CC(C)C4)ccc32)c1 (centres unmarked) | -16.5% |
| Cc1ccccc1Sc1c(C#N)c(-c2ccccc2)nn1C | 10.7% |
